The values that follow come from publication PMC4336329 (PLoS ONE, 2015).

Each structure is given as a SMILES string. About 2,200 (0.71%) of roughly 310,000 compounds showed an effect of 50% or more. Effects have a minus sign here. The list shows a part of the results.

The assay deals with human ether-à-go-go-related gene (hERG) potassium channel (human, UniProt Q12809). The experiment in a line: primary screen, population patch clamp on CHO cells stably expressing hERG.
human ether-à-go-go-related gene (hERG) potassium channel, sequence (Q12809 whole entry, looked up): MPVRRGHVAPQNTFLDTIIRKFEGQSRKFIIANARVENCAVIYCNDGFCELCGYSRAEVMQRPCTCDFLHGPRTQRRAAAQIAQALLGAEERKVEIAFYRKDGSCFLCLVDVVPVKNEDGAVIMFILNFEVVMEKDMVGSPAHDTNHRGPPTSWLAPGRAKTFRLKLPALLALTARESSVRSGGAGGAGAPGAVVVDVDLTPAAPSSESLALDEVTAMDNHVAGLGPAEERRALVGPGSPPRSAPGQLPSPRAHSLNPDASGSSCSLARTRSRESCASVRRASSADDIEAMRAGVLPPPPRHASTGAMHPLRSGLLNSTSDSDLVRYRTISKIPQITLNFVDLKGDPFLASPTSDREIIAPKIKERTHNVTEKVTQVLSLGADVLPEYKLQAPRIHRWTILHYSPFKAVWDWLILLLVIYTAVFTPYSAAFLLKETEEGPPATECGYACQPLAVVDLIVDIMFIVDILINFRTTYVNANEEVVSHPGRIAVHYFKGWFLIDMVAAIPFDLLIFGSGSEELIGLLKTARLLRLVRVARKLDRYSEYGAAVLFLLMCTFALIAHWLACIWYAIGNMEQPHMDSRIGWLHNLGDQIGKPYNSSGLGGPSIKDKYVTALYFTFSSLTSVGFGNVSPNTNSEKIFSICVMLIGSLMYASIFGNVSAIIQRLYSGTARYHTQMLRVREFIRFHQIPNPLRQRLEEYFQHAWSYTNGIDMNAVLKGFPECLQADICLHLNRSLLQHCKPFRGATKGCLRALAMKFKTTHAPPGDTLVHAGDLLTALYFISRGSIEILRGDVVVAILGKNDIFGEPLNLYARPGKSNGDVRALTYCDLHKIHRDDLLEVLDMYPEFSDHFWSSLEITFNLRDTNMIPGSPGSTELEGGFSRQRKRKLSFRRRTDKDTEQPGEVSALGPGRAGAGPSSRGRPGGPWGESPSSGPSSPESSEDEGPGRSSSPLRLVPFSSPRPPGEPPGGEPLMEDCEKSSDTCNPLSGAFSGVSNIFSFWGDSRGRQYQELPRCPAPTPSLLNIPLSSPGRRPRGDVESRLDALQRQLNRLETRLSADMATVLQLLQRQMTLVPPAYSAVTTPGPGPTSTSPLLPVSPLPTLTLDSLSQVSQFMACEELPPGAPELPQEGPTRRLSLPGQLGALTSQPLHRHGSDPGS
As for `Cc1ccnc(NCc2ccc(Cl)cc2)c1`, the “hERG current change (%, negative = inhibition) at 1uM” value stood at 15.2%. In the case of `N#Cc1ccc(OCC(=O)N/N=C2/CC(c3ccccc3)Oc3ccccc32)cc1` (centres unmarked) it was 16.1%; in that of `O=C1CCCN1c1ccc(S(=O)(=O)N2CCC(c3ccccc3)CC2)cc1`, 8.8%; in that of `Cc1cc(NC(=O)c2ccccc2)nc(C)n1`, 7.23%. With `Cc1ccccc1C(C(=O)NC1CCCCC1)N(C(=O)CNC(=O)c1ccco1)c1cccnc1` (centres unmarked), the “hERG current change (%, negative = inhibition) at 1uM” value came to 17%. For `COc1ccccc1CNC(=O)C1CCC(=O)N1C(C)C` (centres unmarked) the value was 14.7%. For `Cc1ccc(C23CC4CC(CC(C(=O)N(C)C)(C4)C2)C3)cc1` the value was 0.105%; for `CC(=O)c1cccc(N(CC(=O)NC2CCCC2)C(=O)c2ccc(C)s2)c1`, 3.73%; for `Cc1cccc(CN2CCN(c3nc4nonc4nc3NC3CC3)CC2)c1`, 14%. For `CN(C)C1(CNC(=O)c2cccc(S(=O)(=O)Nc3ccc(Br)cc3)c2)CCCCC1` the value was -0.758%. As to `CCN1CCCC1CNC(=O)Cn1cccc1C(=O)c1ccccc1C` (centres unmarked), the “hERG current change (%, negative = inhibition) at 1uM” value was -18.5%. In the case of `Cn1ccnc1P(=S)(c1nccn1C)c1nccn1C` it was 3.82%; in that of `S=C(NCCc1ccc(Cl)cc1)NCc1ccccc1`, 13.2%; in that of `CC(C)COc1ccc(C(=O)NC(=S)Nc2ccc(CN3CCOCC3)cc2)cc1`, 2.89%.

As to `CCc1ccc(NC(=O)c2c(Cl)nc(C)c(Cl)c2C)cc1`, the “hERG current change (%, negative = inhibition) at 1uM” value is 4.46%. For `CN(CCC#N)C(=O)COC(=O)c1ccc(CNS(=O)(=O)c2ccc(F)c(Cl)c2)cc1` the value was -2.53%; for `O=C(c1cccc(C(F)(F)F)c1)N1CCC(O)(CS(=O)(=O)Cc2ccccc2)CC1`, 5.69%; for `O=C(CNC(=O)c1ccncc1)N/N=C/c1cc(Br)ccc1O`, -14.1%.

Consider `Cc1[nH]nc2oc(=O)c(CCO)c(C)c12`, for which the “hERG current change (%, negative = inhibition) at 1uM” value stood at 5.3%.

In the case of `CC(C)c1ccc(C2/C(=C(/O)c3ccccc3)C(=O)C(=O)N2CCCN2CCOCC2)cc1` (centres unmarked), the “hERG current change (%, negative = inhibition) at 1uM” value came to 19.6%. In the case of `CCOc1ccccc1NS(=O)(=O)c1cn(C)c(=O)n(C)c1=O` it was 9.1%; in that of `CS(=O)(=O)N(CC(=O)N1CCN(c2ccccc2F)CC1)C1CCCCC1`, 12.8%. In the case of `O=C(NCCCc1ccccc1)c1cc(COc2ccc(F)cc2Cl)on1` it was 13.9%.

With `COc1ccc(S(=O)(=O)N2CCCC(C(=O)NCc3ccco3)C2)cc1OC` (centres unmarked), the “hERG current change (%, negative = inhibition) at 1uM” value is 16%.

In the case of `Cc1ccc(-n2cc(-c3ccccc3)[nH]c2=O)cc1F`, the “hERG current change (%, negative = inhibition) at 1uM” value is 5.72%. For `O=C(Nc1ccccc1-c1nc2ccccc2s1)c1cccnc1` the value was 11.5%; for `CCCn1c(CNc2ccc(Br)cc2)nc2ccccc21`, 18%; for `Cl.NC1=NC2(CCCCC2)N=C(Nc2ccc(Br)cc2)N1`, 17.3%. For `N#CCCN(Cc1cccnc1)C(=S)NC(=O)c1ccco1` the value was 11.8%; for `O=C(NC(Cc1c[nH]c2ccccc12)C(=O)O)c1ccco1` (centres unmarked), 4.33%. As for `c1ccc(-c2cc(-c3nn4c(-c5ccco5)nnc4s3)c3ccccc3n2)cc1`, the “hERG current change (%, negative = inhibition) at 1uM” value is reported as -0.16%. For the compound `NC(=O)C1Cc2ccccc2CN1C(=O)c1cccc(Oc2ccccc2)c1` (centres unmarked), the “hERG current change (%, negative = inhibition) at 1uM” value stood at 10.8%. Consider `CCN(CC)CCNC(=S)Nc1ccc2nc(N3CCN(C)CC3)cc(C)c2c1`, for which the “hERG current change (%, negative = inhibition) at 1uM” value is given as 10.8%. In the case of `Cc1ccccc1N1CC(C(=O)N2CCc3ccccc32)CC1=O` (centres unmarked), the “hERG current change (%, negative = inhibition) at 1uM” value worked out at 8.45%.

Take `Cc1nc(SCC(=O)N2CCOCC2)c2c(C)c(C)sc2n1`: the “hERG current change (%, negative = inhibition) at 1uM” value came out at 5.62%. In the case of `CCOC(=O)c1cnc(SC)nc1Sc1cc(Cl)ccc1Cl` it was 7.06%. For `O=Cc1c(Sc2ccccn2)nc2ccccn2c1=O` the value was -2.15%.

Regarding `S=c1[nH]nc(COc2ccccc2)n1/N=C/c1cccc(Cl)c1Cl`, the “hERG current change (%, negative = inhibition) at 1uM” value came out at 7.78%. In the case of `CCc1cc(=O)oc2c(C)c(OCC(=O)N3CCC(C(=O)O)CC3)ccc12` it was 8.26%. For `CN(C)S(=O)(=O)N1CCC(Oc2cccc(C(=O)NC3CCOC3)c2)CC1` (centres unmarked) the value was 9.88%. With `Cc1coc2cc3oc(=O)c(CCC(=O)O)c(C)c3cc12`, the “hERG current change (%, negative = inhibition) at 1uM” value amounted to 8.92%. For `Cn1c(=O)[nH]c(NC2CCCCC2)c(N=O)c1=O` the value was 5.74%; for `COc1ccc(S(=O)(=O)N2CCC(C(=O)NCc3cccnc3)CC2)cc1Cl`, 8.07%; for `CCCCN(CC)CCNC(=O)c1cc2cc3ccc(Cl)cc3nc2o1`, -12.4%.
